# Results published in article PMC9911399, “Two distinct binding modes provide the RNA-binding protein RbFox with extraordinary sequence specificity”.
# Where a chain is given by its changes, count along the chain named. This is one part of the list.
# T1: RBFOX1 RRM RbFoxmut (Fox-RRM*) (Homo sapiens, UniProt Q9NWB1 109-208, R118D;E147R;N151S;E152T)
# T1 sequence: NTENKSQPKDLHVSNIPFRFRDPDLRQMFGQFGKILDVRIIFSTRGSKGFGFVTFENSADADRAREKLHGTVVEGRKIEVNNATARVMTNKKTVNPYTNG
# B1: CAACCCA (DNA:RNA)
# RNA: GGGAGACCGGAAUUCAGAUUGUCCCAACCCAUUAAAUCCCGUCGUAGCCACCA
# DNA 1: CAATCTGAATTCCGGTCTCCC
# DNA 2: TGGTGGCTACGACGGGATT
# B2: GGUGCGU (DNA:RNA)
# RNA: B1 RNA with C25G, A26G, A27U, C28G, C30G, A31U
# DNA 1: CAATCTGAATTCCGGTCTCCC
# DNA 2: TGGTGGCTACGACGGGATT
# B3: UUUGACC (DNA:RNA)
# RNA: B1 RNA with C25U, A26U, A27U, C28G, C29A, A31C
# DNA 1: CAATCTGAATTCCGGTCTCCC
# DNA 2: TGGTGGCTACGACGGGATT
# B4: UCGAGGA (DNA:RNA)
# RNA: B1 RNA with C25U, A26C, A27G, C28A, C29G, C30G
# DNA 1: CAATCTGAATTCCGGTCTCCC
# DNA 2: TGGTGGCTACGACGGGATT
# B5: UCCGUUG (DNA:RNA)
# RNA: GGGAGACCGGAAUUCAGAUUGUCCUCCGUUGUUAAAUCCCGUCGUAGCCACCA
# DNA 1: CAATCTGAATTCCGGTCTCCC
# DNA 2: TGGTGGCTACGACGGGATT
# B6: ACUGCUC (DNA:RNA)
# RNA: B5 RNA with U25A, C27U, U29C, G31C
# DNA 1: CAATCTGAATTCCGGTCTCCC
# DNA 2: TGGTGGCTACGACGGGATT
# B7: UUCUACC (DNA:RNA)
# RNA: B5 RNA with C26U, G28U, U29A, U30C, G31C
# DNA 1: CAATCTGAATTCCGGTCTCCC
# DNA 2: TGGTGGCTACGACGGGATT
# B8: UUAAGGG (DNA:RNA)
# RNA: B5 RNA with C26U, C27A, G28A, U29G, U30G
# DNA 1: CAATCTGAATTCCGGTCTCCC
# DNA 2: TGGTGGCTACGACGGGATT
# B9: AAUCCUC (DNA:RNA)
# RNA: B1 RNA with C25A, A27U, C30U, A31C
# DNA 1: CAATCTGAATTCCGGTCTCCC
# DNA 2: TGGTGGCTACGACGGGATT
# B10: UGUUUUC (DNA:RNA)
# RNA: B5 RNA with C26G, C27U, G28U, G31C
# DNA 1: CAATCTGAATTCCGGTCTCCC
# DNA 2: TGGTGGCTACGACGGGATT
# B11: CACCUAU (DNA:RNA)
# RNA: B1 RNA with A27C, C29U, C30A, A31U
# DNA 1: CAATCTGAATTCCGGTCTCCC
# DNA 2: TGGTGGCTACGACGGGATT
# B12: GGCCCAG (DNA:RNA)
# RNA: B1 RNA with C25G, A26G, A27C, C30A, A31G
# DNA 1: CAATCTGAATTCCGGTCTCCC
# DNA 2: TGGTGGCTACGACGGGATT
# B13: AGGCCGC (DNA:RNA)
# RNA: B1 RNA with C25A, A26G, A27G, C30G, A31C
# DNA 1: CAATCTGAATTCCGGTCTCCC
# DNA 2: TGGTGGCTACGACGGGATT
# B14: GGCCAGG (DNA:RNA)
# RNA: B5 RNA with U25G, C26G, G28C, U29A, U30G
# DNA 1: CAATCTGAATTCCGGTCTCCC
# DNA 2: TGGTGGCTACGACGGGATT
# B15: AACAGAC (DNA:RNA)
# RNA: B1 RNA with C25A, A27C, C28A, C29G, C30A, A31C
# DNA 1: CAATCTGAATTCCGGTCTCCC
# DNA 2: TGGTGGCTACGACGGGATT
# B16: GGGCGCA (DNA:RNA)
# RNA: B1 RNA with C25G, A26G, A27G, C29G
# DNA 1: CAATCTGAATTCCGGTCTCCC
# DNA 2: TGGTGGCTACGACGGGATT
# B17: CGUACGU (DNA:RNA)
# RNA: B1 RNA with A26G, A27U, C28A, C30G, A31U
# DNA 1: CAATCTGAATTCCGGTCTCCC
# DNA 2: TGGTGGCTACGACGGGATT
# B18: UAAUGUC (DNA:RNA)
# RNA: B1 RNA with C25U, C28U, C29G, C30U, A31C
# DNA 1: CAATCTGAATTCCGGTCTCCC
# DNA 2: TGGTGGCTACGACGGGATT
# B19: ACCACGC (DNA:RNA)
# RNA: B5 RNA with U25A, G28A, U29C, U30G, G31C
# DNA 1: CAATCTGAATTCCGGTCTCCC
# DNA 2: TGGTGGCTACGACGGGATT
# B20: GGCGGUG (DNA:RNA)
# RNA: B5 RNA with U25G, C26G, U29G
# DNA 1: CAATCTGAATTCCGGTCTCCC
# DNA 2: TGGTGGCTACGACGGGATT
# Target: T1, RBFOX1 RRM RbFoxmut (Fox-RRM*)
# Assay: EMSA; HiTS-Eq, 1 nM pool, 10 min; buffer printed only for the single-RNA assays: 10 mM Tris pH 7.5, 150 mM NaCl, 3.4 mM EDTA, 0.001% NP-40, 30 C
# Conditions: tags: His6 N-terminal (pET28a); label: 5' 32P
# Summary of the method: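 A pool of RNA with 7 randomized nucleotides, 5′-radiolabelled and with DNA-annealed flanks, was equilibrated at 1 nM for 10 min in 50 µL with purified RbFox RRM, wild type or mutant, across increasing protein concentrations. Free RNA was separated by 8% native PAGE, excised, reverse-transcribed, barcoded by PCR and sequenced. Relative association constants were obtained from read-count changes of each RNA species versus the control reaction and normalised to the cognate motif.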
row,Binder,binding signal
1,B1,0.0707 KA relative to UGCAUGU
2,B2,0.169 KA relative to UGCAUGU
3,B3,0.0511 KA relative to UGCAUGU
4,B4,0.0746 KA relative to UGCAUGU
5,B5,0.13 KA relative to UGCAUGU
6,B6,0.0835 KA relative to UGCAUGU
7,B7,0.0936 KA relative to UGCAUGU
8,B8,0.0651 KA relative to UGCAUGU
9,B9,0.0428 KA relative to UGCAUGU
10,B10,0.0709 KA relative to UGCAUGU
11,B11,0.112 KA relative to UGCAUGU
12,B12,0.0915 KA relative to UGCAUGU
13,B13,0.0772 KA relative to UGCAUGU
14,B14,0.0786 KA relative to UGCAUGU
15,B15,0.0632 KA relative to UGCAUGU
16,B16,0.14 KA relative to UGCAUGU
17,B17,0.126 KA relative to UGCAUGU
18,B18,0.111 KA relative to UGCAUGU
19,B19,0.0907 KA relative to UGCAUGU
20,B20,0.153 KA relative to UGCAUGU
